Results on 63 compounds are retold here after the supplement of paper PMC9135407.

SMILES strings stand for the structures. “And” between values parts separate entries of the source, which are not always exact repeats. Identical values can stand only once. Counter-ions that a name gives are not always drawn. Among all 5,800 compounds or so, about 620 (11%) showed activity.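 How the source made its calls: active = score above a cut-off or among the top three wells of a plate; in these data no inactive exceeds 0.85.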 The entries are a selection whose mix differs from that of the whole data set. Where only a bound is given, the exact number is not on record here.

The assay deals with primary human hepatic stellate cells (donor 1). The experiment in a line: scaled lipid accumulation score (0 = DMSO-like, 1 = nortriptyline-like); higher = stronger HSC inactivation (lipid re-accumulation), active = hit call of the paper. The following applies: 48 h.
Where [1] appears, read: library stock concentration: 3.33 mM.
The mark [2] stands for this setting: library stock concentration: 10 mM.
[3] abbreviates: library stock concentration: 6 mM.
[4] abbreviates: library stock concentration: 80 uM.
Where [5] appears, read: library stock concentration: 400 uM.
[6] abbreviates: library stock concentration: 2 mM.
The mark [7] stands for this setting: library stock concentration: 1 mM.
The mark [8] stands for this setting: library stock concentration: 5.4 mM.

As for `O=C1Nc2ccc(I)cc2C1=Cc1cc(Br)c(O)c(Br)c1`, the “scaled lipid accumulation score” value under setting [1] is inactive: ≤ 0 and the “scaled lipid accumulation score” value under setting [2] is inactive: 0.083.
For the compound `CCN1CCN(C(=O)N[C@@H](C(=O)N[C@@H]2C(=O)N3C(C(=O)O)=C(CSc4nnnn4C)CS[C@H]23)c2ccc(O)cc2)C(=O)C1=O` [Cefoperazone acid], where the note is “library stock concentration: 3.1 mM”, the “scaled lipid accumulation score” value was inactive: ≤ 0.
Consider `CCN1CCN(C(=O)N[C@@H](C(=O)N[C@@H]2C(=O)N3C(C(=O)O)=C(CSc4nnnn4C)CS[C@H]23)c2ccc(O)cc2)C(=O)C1=O` [Cefoperazone dihydrate], for which the “scaled lipid accumulation score” value was inactive: ≤ 0.
As for `CCN1CCN(C(=O)N[C@@H](C(=O)N[C@@H]2C(=O)N3C(C(=O)O)=C(CSc4nnnn4C)CS[C@H]23)c2ccc(O)cc2)C(=O)C1=O` [Cefoperazone], the “scaled lipid accumulation score” value is, setting by setting: under setting [1], inactive: ≤ 0; under setting [2], inactive: ≤ 0.
For `CCN1CCN(C(=O)N[C@@H](C(=O)N[C@@H]2C(=O)N3C(C(=O)O)=C(CSc4nnnn4C)CS[C@H]23)c2ccc(O)cc2)C(=O)C1=O` [Cefoperazone sodium], the “scaled lipid accumulation score” value by setting is: (library stock concentration: 3 mM) inactive: ≤ 0; under setting [2], inactive: ≤ 0.
Take `O=C(c1cn(Cc2cncn2Cc2ccc(Br)cc2)cc1-c1cccc2ccccc12)N1CCOCC1`: the “scaled lipid accumulation score” value by setting is: under setting [1], inactive: ≤ -0.003; under setting [2], inactive: 0.723.
Take `CO[C@@]12[C@H](COC(N)=O)C3=C(C(=O)C(C)=C(N)C3=O)N1C[C@@H]1N[C@@H]12` [Mitomycin C]: the “scaled lipid accumulation score” value (library stock concentration: 15 mM) was inactive: ≤ -0.012.
`CO[C@@]12[C@H](COC(N)=O)C3=C(C(=O)C(C)=C(N)C3=O)N1C[C@@H]1N[C@@H]12` [Mitomycin c]: the “scaled lipid accumulation score” value reads like this: under setting [3], inactive: ≤ -0.006 and inactive: 0.044; under setting [2], inactive: 0.129.
As to `CC(C(=O)O)c1ccc(N2Cc3ccccc3C2=O)cc1` (centres undefined) [Indoprofen], the “scaled lipid accumulation score” value is inactive: ≤ 0. The “scaled lipid accumulation score” value (library stock concentration: 7.1 mM) is inactive: ≤ -0.001. Also, under setting [2], the “scaled lipid accumulation score” value was inactive: ≤ 0.
For `Cc1cc(Nc2ncnc3ccc(-c4ccc(CNCCS(C)(=O)=O)o4)cc23)ccc1Oc1ccn2ncnc2c1` [HER2-Inhibitor-1], the “scaled lipid accumulation score” value under setting [1] was inactive: 0.203.
Take `CC1=Nc2ccc(Cl)cc2S(=O)(=O)N1` [Diazoxide]: the “scaled lipid accumulation score” value is inactive: ≤ 0. For the same compound, the “scaled lipid accumulation score” value (library stock concentration: 8.7 mM) is inactive: ≤ -0.006 and inactive: ≤ 0. Further, the “scaled lipid accumulation score” value under setting [2] was inactive: ≤ -0.07 and inactive: 0.029 and inactive: 0.015. For the same compound, the “scaled lipid accumulation score” value (library stock concentration: 21.7 mM) is inactive: ≤ -0.021.
`CC1=Nc2ccc(Cl)cc2S(=O)(=O)N1`: the “scaled lipid accumulation score” value under setting [2] is inactive: ≤ 0.
As for `C1CCN2C[C@@H]3C[C@@H](CN4CCCC[C@@H]34)[C@H]2C1` [Sparteine sulfate], the “scaled lipid accumulation score” value runs as follows: under setting [3], inactive: ≤ -0.001; under setting [2], inactive: 0.072.
For `C1CCN2C[C@@H]3C[C@@H](CN4CCCC[C@@H]34)[C@H]2C1` [Sparteine (-)], the “scaled lipid accumulation score” value is inactive: ≤ 0.
As for `c1cc2c(cc1C1CCCCC1)c1c3n2CCNC3CCC1` (centres undefined) [Tetrindole mesylate], the “scaled lipid accumulation score” value under setting [2] was inactive: ≤ 0.
On to `COc1ccccc1S(=O)(=O)Nc1ccc2c(c1)CN(C)C(=O)N2`, for which the “scaled lipid accumulation score” value is inactive: ≤ 0 under setting [4]; inactive: ≤ 0 under setting [5]; inactive: ≤ 0 under setting [6]; inactive: ≤ 0 under setting [1]; inactive: 0.299 and inactive: ≤ 0 under setting [2].
For `CC[C@@H]1C(=O)N(C)c2cnc(Nc3ccc(C(=O)N[C@H]4CC[C@H](N5CCN(CC6CC6)CC5)CC4)cc3OC)nc2N1C(C)C` [Volasertib], the “scaled lipid accumulation score” value under setting [2] was active: 1.17.
As to `COc1ccc2c(OC)c3ccoc3nc2c1OC` [Skimmianine], the “scaled lipid accumulation score” value is inactive: ≤ 0.
As to `CC1CC(OC(=O)C(O)c2ccccc2)CC(C)(C)N1C` (centres undefined) [Eucatropine hydrochloride], the “scaled lipid accumulation score” value was inactive: ≤ 0. Besides, the “scaled lipid accumulation score” value (library stock concentration: 6.1 mM) is inactive: ≤ -0.001. Moreover, the “scaled lipid accumulation score” value under setting [2] was inactive: ≤ 0.
As to `CC1=C(C(=O)OC2CCCCC2)C(c2ccc([N+](=O)[O-])cc2)C2=C(CC(C)(C)CC2=O)N1` (centres undefined), under setting [2], the “scaled lipid accumulation score” value was active: 0.997.
Turning to `Cc1nnc(NS(=O)(=O)c2ccc(N)cc2)s1` [Sulfamethizole], the “scaled lipid accumulation score” value is inactive: ≤ 0. The “scaled lipid accumulation score” value under setting [1] was inactive: ≤ 0. For the same compound, the “scaled lipid accumulation score” value under setting [2] was inactive: ≤ 0.
With `N=C(N)S/C=C\C(=O)O` [ZAPA sulphate], under setting [2], the “scaled lipid accumulation score” value was inactive: 0.011.
As for `C[C@@H](O)CCC[C@@H](O)/C=C/[C@H]1C(O)CC(O)C1CCCCCCC(=O)O` (stereo partly drawn) [15(R),19(R)-hydroxy Prostaglandin F1.alpha.], the “scaled lipid accumulation score” value under setting [7] was inactive: ≤ 0.
In the case of `CN1CCC(=C2c3ccccc3CCc3sccc32)CC1.O=C(O)CC(O)C(=O)O` [Pizotifen Malate], the “scaled lipid accumulation score” value under setting [2] is active: 1.32.
On to `Cc1c(C(=O)c2ccccc2)c(N)c(-c2ccccc2)n1Cc1ccc(Cl)cc1`, for which the “scaled lipid accumulation score” value under setting [7] was inactive: ≤ 0.
Turning to `CCN1CCC[C@H]1CNC(=O)c1c(OC)ccc(Br)c1OC` [Remoxipride Hydrochloride], the “scaled lipid accumulation score” value was inactive: ≤ 0.
`CCN1CCC[C@H]1CNC(=O)c1c(OC)ccc(Br)c1OC` [Remoxipride]: under setting [8], the “scaled lipid accumulation score” value was inactive: 0.005.
In the case of `CCN1CCC[C@H]1CNC(=O)c1c(OC)ccc(Br)c1OC` [Remoxipride hydrochloride], the “scaled lipid accumulation score” value under setting [2] was inactive: ≤ 0.
On the same count and under the same terms, next, `COc1cc(NS(C)(=O)=O)ccc1Nc1c2ccccc2nc2ccccc12` [Amsacrine hydrochloride]: inactive: 0.365.
With `FC(F)c1nc2ccccc2n1-c1nc(N2CCOCC2)nc(N2CCOCC2)n1`, the “scaled lipid accumulation score” value is inactive: ≤ 0 under setting [4]; inactive: ≤ 0 under setting [5]; inactive: 0.007 under setting [6]; inactive: ≤ 0 under setting [1]; inactive: ≤ 0 and inactive: 0.027 under setting [2].
For the compound `O=C1C2CC3CC1CC(O)(C3)C2`, under setting [2], the “scaled lipid accumulation score” value was inactive: 0.163.
On the same count and under the same terms, the figure for `CCN1CCN(c2cc3c(cc2F)c(=O)c(C(=O)O)cn3C2CC2)CC1` is inactive: ≤ 0.
Turning to `Cc1cccc(Nc2nc(-c3ccncc3)cs2)c1`, the “scaled lipid accumulation score” value runs as follows: under setting [1], active: 0.881; under setting [2], active: 1.24.
As for `O=C1NC(=O)/C(=C/c2ccc(-c3ccc(F)cc3O)o2)S1`, the “scaled lipid accumulation score” value under setting [2] was active: 1.66.
Still for that read-out and setting: the figure for `c1ccc(CN2CCC3(CCc4ccccc43)CC2)cc1` [L-693,403 maleate] is inactive: 0.504.
In the case of `OC1(c2ccc(Cl)c(C(F)(F)F)c2)CCN(CCCC(c2ccc(F)cc2)c2ccc(F)cc2)CC1` [Penfluridol], the “scaled lipid accumulation score” value by setting is: under setting [1], inactive: 0.751; under setting [2], inactive: 0.013.
On to `OC1(c2ccc(Cl)c(C(F)(F)F)c2)CCN(CCCC(c2ccc(F)cc2)c2ccc(F)cc2)CC1`, for which the “scaled lipid accumulation score” value under setting [2] is inactive: 0.219.
Consider `COC(=O)Nc1nc2cc(C(=O)c3cccs3)ccc2[nH]1` [Nocodazole], for which the “scaled lipid accumulation score” value was active: 0.883.
With `O=C(O)COC(=O)Cc1ccccc1Nc1c(Cl)cccc1Cl` [Aceclofenac], the “scaled lipid accumulation score” value was inactive: ≤ 0.
`Cc1cnc(NC(=O)C2=C(O)c3ccccc3S(=O)(=O)N2C)s1` [Meloxicam sodium]: the “scaled lipid accumulation score” value is, setting by setting: under setting [8], inactive: ≤ 0; under setting [2], inactive: ≤ -0.046.
Take `Cc1cnc(NC(=O)C2=C(O)c3ccccc3S(=O)(=O)N2C)s1` [Meloxicam]: the “scaled lipid accumulation score” value is inactive: ≤ 0. Moreover, under setting [1], the “scaled lipid accumulation score” value was inactive: ≤ 0. The “scaled lipid accumulation score” value (library stock concentration: 5.7 mM) was inactive: ≤ -0.006. Moreover, the “scaled lipid accumulation score” value under setting [2] was inactive: ≤ 0 and inactive: 0.006.
In the case of `CC(C)NCC(O)COc1ccc(CC(N)=O)cc1` (racemic), the “scaled lipid accumulation score” value under setting [2] was inactive: ≤ 0.
In the case of `CC(C)NCC(O)COc1ccc(CC(N)=O)cc1` (racemic) [(RS)-Atenolol], under setting [2], the “scaled lipid accumulation score” value was inactive: 0.043.
Still for that read-out and setting: the figure for `CC(C)NCC(O)COc1ccc(CC(N)=O)cc1` (racemic) [(?)-Atenolol] is inactive: 0.116.
As for `CC(C)NCC(O)COc1ccc(CC(N)=O)cc1` (racemic) [Atenolol], the “scaled lipid accumulation score” value (library stock concentration: 7.5 mM) is inactive: ≤ 0 and inactive: 0.083; the “scaled lipid accumulation score” value under setting [2] is inactive: ≤ 0.
Consider `CCCCC[C@H](O)/C=C/[C@H]1[C@H](O)CC(=O)[C@@H]1C/C=C\CCCC(=O)OC` [Prostaglandin E2 methyl ester], for which the “scaled lipid accumulation score” value under setting [7] was inactive: ≤ 0.
On to `O=C(O)CCCc1ccccc1` [Sodium phenylbutyrate], for which the “scaled lipid accumulation score” value (library stock concentration: 10.7 mM) is inactive: 0.049.
On to `O=C(O)CCCc1ccccc1` [Sodium Phenylbutyrate], for which the “scaled lipid accumulation score” value is, setting by setting: under setting [1], inactive: ≤ 0; under setting [2], inactive: ≤ -0.001.
With `O=C(O)CCCc1ccccc1`, the “scaled lipid accumulation score” value under setting [2] was inactive: ≤ 0.
For `O=C(O)CCCc1ccccc1` [sodium 4-Phenylbutyrate], under setting [2], the “scaled lipid accumulation score” value is inactive: ≤ -0.001.
`NC1=NCCN1CC(=O)O` [Cyclocreatine]: under setting [2], the “scaled lipid accumulation score” value was inactive: ≤ 0.
Take `CC1(C)O[C@@H]2C[C@H]3[C@@H]4CCC5=CC(=O)C=C[C@]5(C)[C@@]4(F)[C@@H](O)C[C@]3(C)[C@]2(C(=O)CO)O1` [Triamcinolone acetonide]: under setting [2], the “scaled lipid accumulation score” value is inactive: ≤ 0.
Regarding `CC1(C)O[C@@H]2C[C@H]3[C@@H]4CCC5=CC(=O)C=C[C@]5(C)[C@@]4(F)[C@@H](O)C[C@]3(C)[C@]2(C(=O)CO)O1` [Triamcinolone Acetonide], the “scaled lipid accumulation score” value is inactive: ≤ 0 under setting [1] and inactive: ≤ 0 under setting [2].
Take `CC1(C)O[C@@H]2C[C@H]3[C@@H]4CCC5=CC(=O)C=C[C@]5(C)[C@@]4(F)[C@@H](O)C[C@]3(C)[C@]2(C(=O)CO)O1`: the “scaled lipid accumulation score” value under setting [2] was inactive: ≤ 0.
Regarding `CC(C)(C)C(=O)Nc1ccccc1` [N-Pivaloylaniline], the “scaled lipid accumulation score” value under setting [7] is inactive: 0.066.
In the case of `N=C(N)SCCc1c[nH]cn1` [Imetit dihydrobromide], the “scaled lipid accumulation score” value under setting [2] was inactive: ≤ -0.055 and inactive: 0.009.
Consider `CN1CCN(CCCN2c3ccccc3Sc3ccc(Cl)cc32)CC1` [Prochlorperazine edisylate], for which the “scaled lipid accumulation score” value was inactive: 0.713 (library stock concentration: 3.5 mM) and inactive: 0.523 under setting [2].
`CN1CCN(CCCN2c3ccccc3Sc3ccc(Cl)cc32)CC1` [Prochlorperazine dimaleate]: the “scaled lipid accumulation score” value was inactive: 0.696. Also, the “scaled lipid accumulation score” value under setting [2] is inactive: 0.815.
Regarding `COC(=O)CCSCc1ccc(-c2onc(C)c2NC(=O)OC(C)c2ccccc2Cl)cc1` (centres undefined), the “scaled lipid accumulation score” value was inactive: 0.07 under setting [1] and inactive: ≤ 0 under setting [2].
`C[C@H](N)C(=O)CCCCCC(=O)O` [KAPA (hydrochloride)]: the “scaled lipid accumulation score” value under setting [7] is inactive: 0.007.
For the compound `NS(=O)(=O)C#Cc1ccccc1` [Pifithrin->m], under setting [2], the “scaled lipid accumulation score” value is active: 1.46.
With `Cc1nc(=O)c2cc(CN(C)c3ccc(C(=O)N[C@@H](CCC(=O)O)C(=O)O)s3)ccc2[nH]1` [Raltitrexed], the “scaled lipid accumulation score” value under setting [1] was inactive: ≤ 0 and the “scaled lipid accumulation score” value under setting [2] is inactive: ≤ 0.
Take `Cc1nc(=O)c2cc(CN(C)c3ccc(C(=O)N[C@@H](CCC(=O)O)C(=O)O)s3)ccc2[nH]1`: the “scaled lipid accumulation score” value under setting [2] was inactive: ≤ 0.
